Among all 310,000 compounds or so, about 14,000 (4.5%) showed an effect of 50% or more. The effect is printed as a negative number. Some of the results follow.
These molecules were tested against human ether-à-go-go-related gene (hERG) potassium channel (human, UniProt Q12809) (assay: primary screen, population patch clamp on CHO cells stably expressing hERG).
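Also: peak tail current of the secondary pulse compared with the same well before compound.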

human ether-à-go-go-related gene (hERG) potassium channel, sequence (Q12809 whole entry, looked up): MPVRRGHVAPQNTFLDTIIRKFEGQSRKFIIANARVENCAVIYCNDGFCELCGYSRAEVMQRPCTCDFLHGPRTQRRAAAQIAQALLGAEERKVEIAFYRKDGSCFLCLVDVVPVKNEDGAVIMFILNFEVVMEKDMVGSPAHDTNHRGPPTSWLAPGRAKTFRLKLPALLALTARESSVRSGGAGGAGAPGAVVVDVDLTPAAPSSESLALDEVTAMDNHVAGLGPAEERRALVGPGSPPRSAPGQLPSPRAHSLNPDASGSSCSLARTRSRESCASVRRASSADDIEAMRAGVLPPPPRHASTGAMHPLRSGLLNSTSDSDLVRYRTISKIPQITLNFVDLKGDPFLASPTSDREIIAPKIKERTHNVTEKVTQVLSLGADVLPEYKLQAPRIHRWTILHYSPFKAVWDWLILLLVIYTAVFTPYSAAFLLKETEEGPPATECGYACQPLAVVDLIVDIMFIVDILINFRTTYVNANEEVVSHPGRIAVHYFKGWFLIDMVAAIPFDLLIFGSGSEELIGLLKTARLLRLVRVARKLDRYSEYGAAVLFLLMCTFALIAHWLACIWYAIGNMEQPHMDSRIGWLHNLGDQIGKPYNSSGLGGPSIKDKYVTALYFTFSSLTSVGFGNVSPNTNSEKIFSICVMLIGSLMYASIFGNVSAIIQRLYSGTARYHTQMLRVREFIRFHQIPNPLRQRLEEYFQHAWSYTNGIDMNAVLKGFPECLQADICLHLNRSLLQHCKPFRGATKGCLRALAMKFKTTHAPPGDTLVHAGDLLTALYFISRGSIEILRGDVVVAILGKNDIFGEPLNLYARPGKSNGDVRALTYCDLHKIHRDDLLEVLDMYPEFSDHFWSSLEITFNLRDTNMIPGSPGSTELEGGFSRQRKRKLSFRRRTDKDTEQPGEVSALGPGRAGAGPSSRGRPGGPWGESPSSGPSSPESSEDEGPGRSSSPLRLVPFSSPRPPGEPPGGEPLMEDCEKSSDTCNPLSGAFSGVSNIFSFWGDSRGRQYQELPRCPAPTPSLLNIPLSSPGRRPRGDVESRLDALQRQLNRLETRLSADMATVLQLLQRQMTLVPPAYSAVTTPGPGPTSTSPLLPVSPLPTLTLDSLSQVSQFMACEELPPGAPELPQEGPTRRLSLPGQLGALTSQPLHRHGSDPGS

Compound | hERG current change (%, negative = inhibition) at 10uM [%]
CCCc1nn(C)c2c1C(c1ccncc1)C(C#N)=C(N)O2 (centres unmarked) | 15.4
CNC(=S)N(CCc1c(C)[nH]c2ccc(Cl)cc12)Cc1cccnc1 | -8.94
COc1ccccc1/C=C/CN1CCC(n2nccc2NC(=O)CCc2ccccc2)CC1 | -86.1
CCn1c(/C=C\c2ccccc2C)nc2ccccc2c1=O | -19.1
CS(=O)(=O)Nc1ccc(C(=O)Nc2cccc([N+](=O)[O-])c2)cc1 | -35.2
Nc1cccc(N=Cc2c(O)n(Cc3ccc(F)cc3)c(=O)[nH]c2=O)c1 | -10.2
CC(=O)N1N=C(c2ccc([N+](=O)[O-])cc2)CC1c1ccccc1Cl (centres unmarked) | -66
CC1(C)Cc2ccccc2C(C(=O)c2ccccc2)=N1 | 3.5
Cc1ccc(N(CC(=O)Nc2cc(Cl)ccc2Oc2ccccc2)S(C)(=O)=O)cc1C | 14.3
Cc1nn(C)c(Oc2ccc(Cl)cc2)c1C=O | 3.68
O=C(NNC(=O)c1ccccc1Cl)c1cc2cc(OC(F)(F)F)ccc2[nH]1 | 2.86
Cn1cc(C(=O)N2CCOCC2)c2ccccc21 | 8.49
CCCN1C(=O)NC2(O)C(=O)c3ccccc3C12O (centres unmarked) | 10.9
CC(=O)c1ccc(NC(=O)c2ccc([N+](=O)[O-])o2)cc1 | 5.98
COc1ccc(/C=C/c2nc3ccccc3n2Cc2ccc(OC)c(OC)c2)cc1 | 1.72
CN(C)c1ccc([C@@H]2[C@@H]([N+](=O)[O-])[C@H]3C=Cc4ccccc4N3[C@H]2C(=O)c2ccc(Cl)cc2)cc1 | 2.22
O=[N+]([O-])c1c(Nc2ccccc2O)cc(N2CCOCC2)c2nonc12 | -22.1
CCOC(=O)C(C)Sc1nnc(NC(=O)c2ccc(C)c([N+](=O)[O-])c2)s1 (centres unmarked) | -6.35
CCOc1ccc(-n2c(=S)sc3c(=O)[nH]c(SCC(=O)NCc4ccco4)nc32)cc1 | 2.72
CC1(OC(=O)C2CCCC2)C(=O)C=C2C=C(c3ccsc3)OC=C2C1=O (centres unmarked) | -1.14
CCOC(=O)C1(Cc2ccc(O)cc2)NC(c2ccco2)C2C(=O)N(c3ccccc3F)C(=O)C21 (centres unmarked) | -12
Cc1noc(C)c1C(=O)OCC(=O)Nc1ccccc1Oc1ccccc1 | -12.6
CCN1CCc2c(sc(NC(=O)CN3C(=O)c4ccccc4C3=O)c2C(N)=O)C1.Cl | -36.6
